Data: PubChem BioAssay (Tox21)
“And” between values parts separate entries of the source, which are not always exact repeats. Equal entries are not always repeated. This list was built around the results that the source calls inconclusive (neither active nor inactive); the mix of calls is not that of the screen. For some of these results: Potencies of inconclusive entries are doubtful fits and often do not repeat. The source made the active and inactive calls. Unless noted, calls come from the whole dose curve; as a rule, active = well fitted curve in the direction sought with a large enough effect in the repeat runs; inconclusive = weak or mixed curves; inactive = no such curve, though single readings can be large; an effect the other way counts as inactive or inconclusive.

How the values were obtained:
[1] = qHTS assay for identifying genotoxic compounds that show differential cytotoxicity against isogenic chicken DT40 cell lines with known DNA damage response pathways - wild type cell line (AID 743012); settings: DT40 wild type chicken cells viability, CellTiter-Glo, 40 h; activity change, negative = cytotoxicity: at 68.4 µM (top of the series) unless noted; note: nearly all actives have a fitted effect of over 60% in size; note: potency is the fitted concentration of half-maximal effect; for activity change, negative = cytotoxicity: % is set by controls: 0 for no effect and ±100 for the full control effect
Method in brief: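 300 wt DT40 cells/well; cpd (DMSO) pintool-transferred after ~0.5 h at 37 C/5% CO2; 40 h incubation; CellTiter-Glo added, 30 min RT; luminescence read.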

[2] = biological target: Androgen receptor (Homo sapiens) (UniProt P10275); assay: qHTS assay to identify small molecule antagonists of the androgen receptor (AR) signaling pathway (AID 743035; active = well fitted inhibition curve with a large enough effect in the signal ratio in the repeat runs, not every such curve was filed as active; inconclusive = weak or mixed curves, or effect the other way; inactive = no such curve, though single readings can be large or run the other way; the % refers to the signal ratio; note: potency is the fitted concentration of half-maximal effect; for activity change, negative = inhibition: % is set by controls: 0 for no effect and ±100 for the full control effect); settings: HEK293 AR-UAS-bla, R1881-stimulated, beta-lactamase FRET, 16 h; activity change, negative = inhibition: at 58.5 µM (top of the series) unless noted
Chain of UniProt P10275 (P10275 whole entry, looked up): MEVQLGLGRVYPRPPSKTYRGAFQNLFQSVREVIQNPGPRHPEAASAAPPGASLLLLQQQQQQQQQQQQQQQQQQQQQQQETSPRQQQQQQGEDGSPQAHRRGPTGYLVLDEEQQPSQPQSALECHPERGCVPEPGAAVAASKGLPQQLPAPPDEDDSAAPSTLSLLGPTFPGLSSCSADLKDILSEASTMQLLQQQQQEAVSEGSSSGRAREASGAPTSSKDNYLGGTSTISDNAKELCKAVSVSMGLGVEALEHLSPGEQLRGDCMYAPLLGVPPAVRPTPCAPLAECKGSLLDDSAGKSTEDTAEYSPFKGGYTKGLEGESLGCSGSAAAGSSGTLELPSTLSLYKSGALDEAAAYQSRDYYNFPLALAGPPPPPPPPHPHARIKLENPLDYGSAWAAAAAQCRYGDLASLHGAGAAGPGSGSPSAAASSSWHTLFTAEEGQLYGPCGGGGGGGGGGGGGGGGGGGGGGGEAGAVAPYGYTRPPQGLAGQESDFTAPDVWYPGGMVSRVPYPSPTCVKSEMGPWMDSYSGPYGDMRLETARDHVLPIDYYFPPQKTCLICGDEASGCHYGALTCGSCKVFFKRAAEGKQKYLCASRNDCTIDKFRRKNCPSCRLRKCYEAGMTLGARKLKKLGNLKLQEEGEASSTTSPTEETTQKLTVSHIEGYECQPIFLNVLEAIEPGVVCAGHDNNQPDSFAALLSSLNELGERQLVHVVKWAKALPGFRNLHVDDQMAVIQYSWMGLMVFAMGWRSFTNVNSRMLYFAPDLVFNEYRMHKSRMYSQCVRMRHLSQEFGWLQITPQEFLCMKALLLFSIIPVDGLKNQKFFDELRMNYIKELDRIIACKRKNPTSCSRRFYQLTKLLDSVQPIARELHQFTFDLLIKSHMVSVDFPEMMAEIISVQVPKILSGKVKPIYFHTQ
Method in brief: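 In this cell-based reporter screen, compounds were tested in concentration series against R1881-activated HEK293 cells expressing beta-lactamase under UAS control; after 16 h at 37C, FRET substrate was added and fluorescence read 2 h later.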

[3] = biological target: Androgen receptor (Homo sapiens) (UniProt P10275); assay: qHTS assay to identify small molecule agonists of the androgen receptor (AR) signaling pathway (AID 743036; active = well fitted activation curve with a large enough effect in the signal ratio in the repeat runs, with a control signal flat, not every such curve was filed as active; inconclusive = weak or mixed curves, or effect the other way; inactive = no such curve, though single readings can be large or run the other way; the % refers to the signal ratio; note: potency is the fitted concentration of half-maximal effect; for activation: % is set by controls: 0 for no effect and ±100 for the full control effect); settings: HEK293 AR-UAS-bla GripTite, beta-lactamase FRET ratio, 16 h; activation: at 62.4 µM (top of the series) unless noted
Method in brief: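 Screening used 2,000 AR-bla HEK293 cells per well, treated 16 h at 37C with test compounds in DMSO alongside positive and DMSO-only controls; beta-lactamase activity was then read by LiveBLAzer B/G FRET fluorescence after 2 h at room temperature.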

[4] = biological target: Androgen receptor (Homo sapiens) (UniProt P10275); assay: qHTS assay to identify small molecule antagonists of the androgen receptor (AR) signaling pathway using the MDA cell line (AID 743042; note: nearly all actives have a fitted effect of over 55% in size; note: potency is the fitted concentration of half-maximal effect; for activity change, negative = inhibition: % is set by controls: 0 for no effect and ±100 for the full control effect)
Method in brief: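 MDA-kb2 cells (human breast carcinoma, stably carrying an MMTV-luciferase reporter responsive to AR and GR) were plated at 3,000 cells/well and preincubated 5 hr at 37C, then given compound plus R1881 agonist for 16 h. ONE-Glo luminescence was read.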

[5] = qHTS assay to identify small molecule antagonists of the thyroid receptor (TR) signaling pathway - cell viability counter screen (AID 743064); settings: GH3.TRE-Luc viability, CellTiter-Fluor, 24 h; activity change, negative = cytotoxic: at 70.3 µM (top of the series) unless noted; note: nearly all actives have a fitted effect of over 50% in size; note: potency is the fitted concentration of half-maximal effect
Method in brief: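 Viability of T3-stimulated (1 nM final) GH3.TRE-Luc cells is measured by CellTiter-Fluor fluorescence after 23.5 h compound exposure at 37 °C plus 30 min reagent incubation.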

[6] = qHTS assay to identify small molecule antagonists of the androgen receptor (AR) signaling pathway - cell viability counter screen (AID 743033; note: potency is the fitted concentration of half-maximal effect; nearly all actives have a fitted effect of over 45% in size); settings: AR-bla HEK293 viability, CellTiter-Glo luminescence, 16 h; activity change, negative = cytotoxicity: at 58.5 µM (top of the series)
[7] = qHTS assay for identifying genotoxic compounds that show differential cytotoxicity against isogenic chicken DT40 cell lines with known DNA damage response pathways - Rev3 mutant cell line (AID 743014); settings: chicken DT40 Rev3-/- viability, CellTiter-Glo, 40 h; activity, negative = cytotoxicity: at 68.4 µM (top of the series); note: nearly all actives have a fitted effect of over 55% in size; note: potency is the fitted concentration of half-maximal effect
[8] = qHTS assay to identify small molecule antagonists of the androgen receptor (AR) signaling pathway using the MDA cell line - cell viability counter screen (AID 743041; note: nearly all actives have a fitted effect of over 45% in size; note: potency is the fitted concentration of half-maximal effect); settings: MDA-kb2 viability, CellTiter-Fluor, 16 h, cells co-treated with R1881 androgen agonist; viability change, negative = cytotoxic: at 70.3 µM (top of the series) unless noted
Method in brief: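 In this qHTS counter assay, fluorescence intensity after CellTiter-Fluor addition indicated viability of MDA-kb2 AR-luc cells given compounds and R1881 for 16 h at 37C.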

[9] = qHTS assay for identifying genotoxic compounds that show differential cytotoxicity against isogenic chicken DT40 cell lines with known DNA damage response pathways - Rad54/Ku70 mutant cell line (AID 743015); settings: DT40 Rad54/Ku70 mutant viability, CellTiter-Glo, 40 h; activity change, negative = cytotoxicity: at 66.8 µM (top of the series); note: % is set by controls: 0 for no effect and ±100 for the full control effect; nearly all actives have a fitted effect of over 60% in size
Tags give direction and shape of the fitted curve or compound fluorescence and quenching.

NC1[C@H]2CN(c3nc4c(cc3F)c(=O)c(C(=O)O)cn4-c3ccc(F)cc3F)C[C@@H]12 (stereo partly drawn)
Potency [1]: active: 4.73 µM | Potency [2]: inconclusive: 19 µM [rising, partial curve] | Potency [3]: inconclusive: 23.9 µM

CCc1ccc(C(c2ccc(CC)cc2)C(Cl)Cl)cc1
Potency [1]: inconclusive: 69.7 µM [single point] | Potency [2]: inconclusive: 5.59 µM [falling, partial curve, poor fit] | activity change, negative = inhibition [2]: inconclusive: -12% | Potency [3]: inconclusive: 2.22 µM [activator, single point] and inactive | Potency [4]: inactive | Potency [5]: inconclusive: 30.6 µM [cytotoxic, partial curve, poor fit]

CCn1cc(C(=O)O)c(=O)c2cc(F)c(N3CCNCC3)cc21
Potency [1]: inactive | Potency [6]: inconclusive: 0.0018 µM [cytotoxic, full curve, poor fit] | Potency [5]: inactive

Cc1cc(N)n(-c2ccccc2)n1
activity, negative = cytotoxicity [7]: inconclusive: -32.4% [cytotoxic]

C/C=C/C=C/COC(=O)C(C)C
Potency [1]: active: 13.7 µM | Potency [5]: inconclusive: 68.6 µM [cytotoxic, single point]

Cn1c(N)nc2nc[nH]c2c1=O
activity change, negative = cytotoxicity [1]: inconclusive: 31.4% | Potency [5]: inactive

CC(O)c1ccccc1 (stereo not drawn)
Potency [7]: inconclusive: 78.4 µM [rising, partial curve, poor fit]

OCC(O)CN1CCN(c2ccccc2)CC1 (stereo not drawn)
Potency [1]: inconclusive: 16.8 µM [rising, partial curve, poor fit] | Potency [8]: inactive | Potency [5]: inconclusive: 18.8 µM [rising, partial curve, poor fit]

Cc1cc(C)c(N)cc1C
Potency [7]: inactive

CN1CCCC1=O
Potency [7]: inactive

C=CN1CCCC1=O
Potency [1]: inactive | Potency [5]: inconclusive: 24 µM [rising, partial curve]

O=C(O)Cc1cc(I)c(Oc2cc(I)c(O)c(I)c2)c(I)c1
Potency [1]: inactive | Potency [5]: inconclusive: 47.6 µM [cytotoxic, single point]

COC(=O)CCCC(=O)OC
Potency [7]: inactive

COc1cc(C(=O)NCCCCCC(=O)O)cc(OC)c1OC
Potency [7]: inconclusive: 26.6 µM [rising, partial curve, poor fit]

CCCCCCOCCOCCO
Potency [1]: inconclusive: 0.687 µM [rising, full curve, poor fit] | Potency [5]: inactive

CCCC(CC)CCCCCCCN (stereo not drawn)
Potency [7]: inconclusive: 35.2 µM [cytotoxic, partial curve]

NCCc1cnc[nH]1
Potency [7]: inconclusive: 23.7 µM [rising, partial curve]

CC(=O)CCC(C)C
Potency [1]: inactive | Potency [5]: inconclusive: 74.4 µM [rising, single point] and inconclusive: 15.4 µM [rising, single point]

O=C(O)c1ccc(-n2nc(-c3ccccc3O)nc2-c2ccccc2O)cc1
Potency [1]: active: 13.3 µM | Potency [8]: inactive | Potency [5]: inconclusive: 33.5 µM [cytotoxic, single point]

COC(=O)CCCCC(=O)OC
Potency [7]: inconclusive: 54.5 µM [cytotoxic, partial curve, poor fit]

CCC(C(=O)NC(N)=O)c1ccccc1 (stereo not drawn)
Potency [7]: inconclusive: 29.8 µM [rising, partial curve, poor fit]

Cc1ccc(Cl)c(N)c1Cl
Potency [7]: active: 68.6 µM

OC1CCCCC1
Potency [7]: inactive

c1ccc(CCCc2ccncc2)cc1
Potency [7]: inconclusive: 15.4 µM [cytotoxic, partial curve, poor fit]

O=C1CCc2ccc(OCCCCN3CCN(c4cccc(Cl)c4Cl)CC3)cc2N1
Potency [1]: active: 5.96 µM | Potency [5]: active: 11.9 µM

Cc1cc(C)c(O)c(C)c1
Potency [1]: inconclusive: 0.611 µM [rising, partial curve] | Potency [5]: inconclusive: 21.7 µM [rising, partial curve, poor fit]

CC(C)(C)CC(C)(C)c1ccc(O)c(-n2nc3ccccc3n2)c1
Potency [1]: inconclusive: 0.876 µM [rising, partial curve] | Potency [5]: active: 26.6 µM and inconclusive: 31.1 µM [cytotoxic, full curve, poor fit] and active: 30.6 µM

CCCOC(=O)c1ccc(O)cc1
Potency [1]: inconclusive: 27.3 µM [rising, full curve] | Potency [5]: inconclusive: 3.06 µM [rising, partial curve, poor fit]

CCOC(=O)NNc1ccc(N(CC)CC(C)O)nn1 (stereo not drawn)
Potency [1]: inconclusive: 33.5 µM [cytotoxic, single point] | Potency [5]: inactive

Cc1cc(=O)c2c(O)c3c(O)cc(=O)c4c3c3c(cc(O)c1c23)C(C)(C)C=4O
Potency [7]: active: 1.06 µM

CCC(O)OC(O)CC (stereo not drawn)
activity change, negative = cytotoxicity [1]: inconclusive: -1.77% [at 95 µM] | Potency [5]: inconclusive: 6.11 µM [rising, single point]

Cc1cccc(OCCOc2cccc(C)c2)c1
Potency [7]: inconclusive: 18.3 µM [cytotoxic, partial curve, poor fit]

C=C/C(C)=C/C/C=C(\C)CCC=C(C)C
Potency [1]: inconclusive: 68.6 µM [cytotoxic, single point] | Potency [5]: inconclusive: 61.1 µM [cytotoxic, single point]

Nc1ccccc1N
Potency [1]: inconclusive: 70.2 µM [cytotoxic, single point] and active: 3.86 µM | Potency [5]: inconclusive: 19.9 µM [cytotoxic, partial curve]

Nc1ccc(Oc2ccc(Cl)cc2)cc1
Potency [7]: inconclusive: 30 µM [cytotoxic, partial curve, poor fit]

O=C(CC(=O)c1ccccc1)c1ccccc1
Potency [1]: active: 36.9 µM | Potency [5]: inconclusive: 0.928 µM [rising, partial curve, poor fit]

CCCCC(CC)COC(=O)COc1cc(Cl)c(Cl)cc1Cl (stereo not drawn)
Potency [1]: inactive | Potency [5]: inconclusive: 12.2 µM [rising, full curve, poor fit]

O=C(O)Cc1cn(-c2ccccc2)nc1-c1ccc(Cl)cc1
Potency [1]: inactive | Potency [5]: inactive

CN1CCN(C2=Nc3cc(Cl)ccc3Nc3ccccc32)CC1
Potency [1]: active: 21.1 µM | Potency [5]: active: 13.3 µM

CC(=O)CC(=O)Nc1ccc2[nH]c(=O)[nH]c2c1
Potency [1]: inactive | Potency [5]: inconclusive: 27.3 µM [rising, single point]

CCOC(=O)/C=C/C(=O)OCC
Potency [1]: inactive | Potency [5]: inconclusive: 24.3 µM [rising, partial curve]

C=CC(=O)OCCCC
Potency [1]: inactive | Potency [5]: inactive

CCCCOCCOCCSC#N
Potency [1]: inconclusive: 0.362 µM [rising, full curve, poor fit] | Potency [5]: inconclusive: 2.57 µM [rising, single point]

Oc1cccc(-c2c3nc(c(-c4cccc(O)c4)c4ccc([nH]4)c(-c4cccc(O)c4)c4nc(c(-c5cccc(O)c5)c5ccc2[nH]5)CC4)C=C3)c1
Potency [4]: inconclusive: 33.5 µM [inhibitor, single point]

CN1C(CSCC(F)(F)F)Nc2cc(Cl)c(S(N)(=O)=O)cc2S1(=O)=O (stereo not drawn)
Potency [7]: active: 26.6 µM | Potency [5]: inactive

CC(=O)Nc1cc(S(=O)(=O)O)cc2cc(S(=O)(=O)O)c(N=Nc3ccccc3)c(O)c12
Potency [7]: inconclusive: 27.3 µM [cytotoxic, single point] | Potency [5]: inconclusive: 15.4 µM [cytotoxic, partial curve]

CCOc1cc(OCC)c(C(=O)CCC(=O)O)cc1OCC
Potency [7]: inconclusive: 29.8 µM [rising, partial curve, poor fit] | Potency [5]: inactive

CN1CCCC(n2nc(Cc3ccc(Cl)cc3)c3ccccc3c2=O)CC1 (stereo not drawn)
Potency [7]: active: 21.1 µM | Potency [8]: inconclusive: 27.8 µM [cytotoxic, partial curve, poor fit] | Potency [5]: active: 21.1 µM

O=C=NCCCCCCN=C=O
Potency [9]: inactive

CC1=C(CC=O)C(C)(C)CCC1
Potency [7]: inconclusive: 19.3 µM [cytotoxic, partial curve, poor fit] | Potency [8]: inactive

O=CC(=O)c1ccccc1
Potency [7]: inconclusive: 43.3 µM [cytotoxic, partial curve, poor fit] | Potency [5]: inactive

CC(C)(C)NCCNC(C)(C)C
Potency [9]: inactive

CCCCCCCCOc1ccc(C(=O)O)cc1
Potency [9]: inactive

CCCCCCCCCC(=O)N(C)C
Potency [7]: inactive | Potency [5]: inconclusive: 69.6 µM [cytotoxic, partial curve, poor fit]

CCCCCCCCCCCCSC#N
Potency [9]: inactive

Clc1nc2ccccc2nc1Cl
Potency [7]: inactive | Potency [5]: inconclusive: 69.4 µM [rising, single point]

Nc1ccc(Oc2ccc(N)c(N)c2)cc1
Potency [7]: active: 7.7 µM | Potency [5]: inconclusive: 61.1 µM [cytotoxic, partial curve]

c1cnc2c(n1)CCCC2
Potency [7]: inactive | Potency [2]: inactive | Potency [3]: inactive

COc1ccccc1N1CCN(CCCCNC(=O)c2ccc(-c3ccc(C(C)=O)cc3)cc2)CC1
Potency [7]: inactive | Potency [8]: inconclusive: 15 µM [cytotoxic, partial curve, poor fit] | Potency [5]: inconclusive: 13.3 µM [cytotoxic, partial curve]

O=c1cc(-c2ccccc2)oc2cc(O)cc(O)c12
Potency [7]: active: 48.6 µM | Potency [2]: inconclusive: 11 µM [rising, full curve, poor fit] | Potency [3]: inconclusive: 8.71 µM [fluorescent, full curve, poor fit]

CCCC1C(CC)=CC(CC)=CN1c1ccccc1 (stereo not drawn)
Potency [7]: active: 2.17 µM | Potency [8]: active: 54.5 µM | Potency [5]: inactive

CCCc1ccc(OC)cc1
Potency [7]: inconclusive: 15.4 µM [cytotoxic, full curve] | Potency [2]: inactive | Potency [3]: inconclusive: 1.1 µM [activator, single point] | Potency [5]: inconclusive: 48.9 µM [rising, partial curve, poor fit]
